PubChem BioAssay (NCI)
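Values below derive from 48-hour exposures of cells grown in 96-well plates, with endpoints linearly interpolated between the two concentrations bracketing the appropriate inhibition level. GI50: concentration for 50% inhibition of growth. The concentration for full growth arrest is given as TGI.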

System: NCI-H322M lung
Assay: growth of human tumour cells (NCI), 48 h

Molecule `CC(=O)/C=C/c1cccc2c1C(=O)NC(C)(c1cc3cc(Br)ccc3oc1=O)N2` (configuration not stated) has a GI50 of 16.6 µM and a TGI of 67.1 µM.
